Measurements as given in PubChem BioAssay (NCI).
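Dose response: 5 concentrations. Exposure: 48 h. Format: 96-well plates. Endpoint: linear interpolation; highest concentration if not reached. TGI marks complete inhibition of growth.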 A number of entries come with more than one value. Only these are listed. An entry can have further records. Records of one sample usually come from different ranges of test concentrations, not given here; some values may only mark the edge of a range.

Tested on: MDA-MB-468 breast
Assay: DTP human tumour cell line panel, 48 h

For COc1ccc(C2CC(c3ccc4ccccc4c3)=NN2c2nc(O)c(C3=c4cc(Cl)ccc4=NC3=O)s2)cc1 (stereo unspecified), the TGI was 50.9 nM and < 5 nM.
